{"source": "the supplement of paper PMC8728848", "binders": {"B1": {"name": "CC1G-10077 (Coprinopsis cinerea), A8NDT7 (protein)", "chain": "MALNEGVYWIRNSRFTNKVLDLDAANVAKGTSILDFNEHGTFNENHNQLWIVERFQSRDTYLIRSVHSNLVLDLSQGLSANGTPILCWTQHGGTNQQWRIEWVKDDNKTPLYRIVSVATGTAISHNEDDSSAYTVAWSVDDGPKQLWSFDPFVTPLLYRLRVKSTSRVLDLAAASADNGTLALAWEQHTAITKRNQLWWLPYRSGAEEYTIQCLETSTVADLSGGNSGNGTPIYGWQSHGGRNQQWKFEPTSDSGDYYHIKNVEGGSVMDAYMNDSQKRVGGWSNNGGDNQKWLLDPLPSPGPGWVLIQNGGTGKFLCSTPSGDIGTADGPETVYDYSVQWRFIQREYTGVYHVVNRATGAYLRQIGTSMPSIGLAEENDDELKDWWMLETYDNSEIGLASIISRWTGNVLDHYGGVSVQALDNNTENSYRSWAIIPARDWLTSFSLVNGQGGLCLAAQYAREETRLSTTANVNDFHAQWVFRKPSGSSGYTIQNKYNNHYVGGTSARWELVVCCNKYFGIRNTSTQKYLAIEDGQVTFQDQDMTDRKQCWELCSGRATDTSGNDYDLIYMDDDLLEVMIPWVGDKQGDLKHYIEKRATKKPPKDKGGWQLPAAGLIKKPKFNDIRQLLQELIEQWEWDVVNEEREQIQTLVSIDEAEARRLLGRRPHPDIVAAYQRSRSSTLFRIDRQGYFNIAGDRYVNIQGQYGDDSYFHIALPVGVRFGREQIRRFLRDSLDRSTSVTITPTTCKPPSGGPDYNRDPDSDGDNSWIKWTIAVVGTSAIKHSEL"}}, "test_in_all_cases": "glycan array binding signal (z-score within array); higher = stronger binding", "settings_in_all_cases": "glycan notation: IUPAC condensed, linker removed", "key": {"Fuc(a1-2)Gal": {"target": "Fuc(a1-2)Gal", "summary_of_the_method": "(§1)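 Glycan array data were curated from 3228 arrays in the Consortium for Functional Glycomics database and kept only where the protein sequence was available. Glycan names were converted to IUPAC-condensed notation, and columns mapping to the same glycan were averaged. The binding signal is a within-array Z-score, averaged across arrays of the same protein sequence at different concentrations or buffers and across linkers. Negative Z-scores can be read as non-binding.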"}, "Fuc(a1-2)Gal(b1-3)GalNAc": {"target": "Fuc(a1-2)Gal(b1-3)GalNAc", "summary_of_the_method": "as §1"}, "[1]": {"target": "Fuc(a1-2)Gal(b1-3)GalNAc(a1-3)[Fuc(a1-2)]Gal(b1-4)Glc", "summary_of_the_method": "as §1"}, "[2]": {"target": "Fuc(a1-2)Gal(b1-3)GalNAc(a1-3)[Fuc(a1-2)]Gal(b1-4)GlcNAc", "summary_of_the_method": "as §1"}, "[3]": {"target": "Fuc(a1-2)Gal(b1-3)GalNAc(b1-3)Gal", "summary_of_the_method": "as §1"}, "[4]": {"target": "Fuc(a1-2)Gal(b1-3)GalNAc(b1-3)Gal(a1-4)Gal(b1-4)Glc", "summary_of_the_method": "as §1"}, "[5]": {"target": "Fuc(a1-2)Gal(b1-3)GalNAc(b1-4)[Neu5Ac(a2-3)]Gal(b1-4)Glc", "summary_of_the_method": "as §1"}, "Fuc(a1-2)Gal(b1-3)GlcNAc": {"target": "Fuc(a1-2)Gal(b1-3)GlcNAc", "summary_of_the_method": "as §1"}, "[6]": {"target": "Fuc(a1-2)Gal(b1-3)GlcNAc(b1-2)Man(a1-3)[Fuc(a1-2)Gal(b1-3)GlcNAc(b1-2)Man(a1-6)]Man(b1-4)GlcNAc(b1-4)GlcNAc", "summary_of_the_method": "as §1"}, "[7]": {"target": "Fuc(a1-2)Gal(b1-3)GlcNAc(b1-2)Man(a1-3)[Fuc(a1-2)Gal(b1-3)GlcNAc(b1-2)Man(a1-6)]Man(b1-4)GlcNAc(b1-4)[Fuc(a1-6)]GlcNAc", "summary_of_the_method": "as §1"}, "[8]": {"target": "Fuc(a1-2)Gal(b1-3)GlcNAc(b1-3)Gal(b1-4)Glc", "summary_of_the_method": "as §1"}, "[9]": {"target": "Fuc(a1-2)Gal(b1-3)GlcNAc(b1-3)GalNAc", "summary_of_the_method": "as §1"}, "[10]": {"target": "Fuc(a1-2)Gal(b1-3)GlcNAc(b1-3)[Fuc(a1-2)Gal(b1-3)GlcNAc(b1-6)]GalNAc", "summary_of_the_method": "as §1"}, "[11]": {"target": "Fuc(a1-2)Gal(b1-3)GlcNAc(b1-3)[Gal(b1-4)GlcNAc(b1-6)]Gal(b1-4)Glc", "summary_of_the_method": "as §1"}, "[12]": {"target": "Fuc(a1-2)Gal(b1-3)GlcNAc(b1-3)[Neu5Ac(a2-6)Gal(b1-4)GlcNAc(b1-6)]Gal(b1-4)Glc", "summary_of_the_method": "as §1"}, "[13]": {"target": "Fuc(a1-2)Gal(b1-3)GlcNAc6S", "summary_of_the_method": "as §1"}, "[14]": {"target": "Fuc(a1-2)Gal(b1-3)[Fuc(a1-4)]GlcNAc", "summary_of_the_method": "as §1"}, "[15]": {"target": "Fuc(a1-2)Gal(b1-3)[Fuc(a1-4)]GlcNAc(b1-2)Man(a1-3)[Fuc(a1-2)Gal(b1-3)[Fuc(a1-4)]GlcNAc(b1-2)Man(a1-3)]Man(b1-4)GlcNAc(b1-4)GlcNAc", "summary_of_the_method": "as §1"}, "[16]": {"target": "Fuc(a1-2)Gal(b1-3)[Fuc(a1-4)]GlcNAc(b1-2)Man(a1-3)[Fuc(a1-2)Gal(b1-3)[Fuc(a1-4)]GlcNAc(b1-2)Man(a1-6)]Man(b1-4)GlcNAc(b1-4)[Fuc(a1-6)]GlcNAc(b1-4)[Fuc(a1-6)]GlcNAc", "summary_of_the_method": "as §1"}, "[17]": {"target": "Fuc(a1-2)Gal(b1-3)[Fuc(a1-4)]GlcNAc(b1-3)[Fuc(a1-3)[Gal(b1-4)]GlcNAc(b1-6)]Gal(b1-4)Glc", "summary_of_the_method": "as §1"}, "[18]": {"target": "Fuc(a1-2)Gal(b1-3)[Fuc(a1-4)]GlcNAc(b1-3)[Gal(b1-4)GlcNAc(b1-6)]Gal(b1-4)Glc", "summary_of_the_method": "as §1"}, "[19]": {"target": "Fuc(a1-2)Gal(b1-4)Fuc(a1-3)]GlcNAc(b1-2)Man(a1-3)[Fuc(a1-2)Gal(b1-4)[Fuc(a1-3)]GlcNAc(b1-2)Man(a1-6)]Man(b1-4)GlcNAc(b1-4)GlcNAc", "summary_of_the_method": "as §1"}, "Fuc(a1-2)Gal(b1-4)Glc": {"target": "Fuc(a1-2)Gal(b1-4)Glc", "summary_of_the_method": "as §1"}, "Fuc(a1-2)Gal(b1-4)Glc6S": {"target": "Fuc(a1-2)Gal(b1-4)Glc6S", "summary_of_the_method": "as §1"}, "Fuc(a1-2)Gal(b1-4)GlcNAc": {"target": "Fuc(a1-2)Gal(b1-4)GlcNAc", "summary_of_the_method": "as §1"}, "[20]": {"target": "Fuc(a1-2)Gal(b1-4)GlcNAc(b1-2)Man", "summary_of_the_method": "as §1"}, "[21]": {"target": "Fuc(a1-2)Gal(b1-4)GlcNAc(b1-2)Man(a1-3)[Fuc(a1-2)Gal(b1-4)GlcNAc(b1-2)Man(a1-6)]Man(b1-4)GlcNAc(b1-4)GlcNAc", "summary_of_the_method": "as §1"}, "[22]": {"target": "Fuc(a1-2)Gal(b1-4)GlcNAc(b1-2)Man(a1-3)[Fuc(a1-2)Gal(b1-4)GlcNAc(b1-2)Man(a1-6)]Man(b1-4)GlcNAc(b1-4)[Fuc(a1-6)]GlcNAc", "summary_of_the_method": "as §1"}, "[23]": {"target": "Fuc(a1-2)Gal(b1-4)GlcNAc(b1-2)[Fuc(a1-2)Gal(b1-4)GlcNAc(b1-4)]Man(a1-3)[Fuc(a1-2)Gal(b1-4)GlcNAc(b1-2)Man(a1-6)]Man(b1-4)GlcNAc(b1-4)GlcNAc", "summary_of_the_method": "as §1"}, "[24]": {"target": "Fuc(a1-2)Gal(b1-4)GlcNAc(b1-3)Gal(b1-4)GlcNAc", "summary_of_the_method": "as §1"}}, "note": "Some of the results follow.", "data": [{"binder": "B1", "values": [{"measurement": "glycan array binding signal (z-score)", "setting": "Fuc(a1-2)Gal", "value": -0.388}, {"measurement": "glycan array binding signal (z-score)", "setting": "Fuc(a1-2)Gal(b1-3)GalNAc", "value": -0.484}, {"measurement": "glycan array binding signal (z-score)", "setting": "[1]", "value": -0.462}, {"measurement": "glycan array binding signal (z-score)", "setting": "[2]", "value": -0.497}, {"measurement": "glycan array binding signal (z-score)", "setting": "[3]", "value": -0.456}, {"measurement": "glycan array binding signal (z-score)", "setting": "[4]", "value": -0.416}, {"measurement": "glycan array binding signal (z-score)", "setting": "[5]", "value": -0.453}, {"measurement": "glycan array binding signal (z-score)", "setting": "Fuc(a1-2)Gal(b1-3)GlcNAc", "value": -0.495}, {"measurement": "glycan array binding signal (z-score)", "setting": "[6]", "value": -0.383}, {"measurement": "glycan array binding signal (z-score)", "setting": "[7]", "value": -0.437}, {"measurement": "glycan array binding signal (z-score)", "setting": "[8]", "value": -0.448}, {"measurement": "glycan array binding signal (z-score)", "setting": "[9]", "value": -0.394}, {"measurement": "glycan array binding signal (z-score)", "setting": "[10]", "value": -0.264}, {"measurement": "glycan array binding signal (z-score)", "setting": "[11]", "value": 0.69}, {"measurement": "glycan array binding signal (z-score)", "setting": "[12]", "value": -0.23}, {"measurement": "glycan array binding signal (z-score)", "setting": "[13]", "value": -0.482}, {"measurement": "glycan array binding signal (z-score)", "setting": "[14]", "value": -0.493}, {"measurement": "glycan array binding signal (z-score)", "setting": "[15]", "value": -0.472}, {"measurement": "glycan array binding signal (z-score)", "setting": "[16]", "value": -0.384}, {"measurement": "glycan array binding signal (z-score)", "setting": "[17]", "value": -0.303}, {"measurement": "glycan array binding signal (z-score)", "setting": "[18]", "value": 0.268}, {"measurement": "glycan array binding signal (z-score)", "setting": "[19]", "value": -0.343}, {"measurement": "glycan array binding signal (z-score)", "setting": "Fuc(a1-2)Gal(b1-4)Glc", "value": -0.353}, {"measurement": "glycan array binding signal (z-score)", "setting": "Fuc(a1-2)Gal(b1-4)Glc6S", "value": -0.453}, {"measurement": "glycan array binding signal (z-score)", "setting": "Fuc(a1-2)Gal(b1-4)GlcNAc", "value": -0.192}, {"measurement": "glycan array binding signal (z-score)", "setting": "[20]", "value": -0.429}, {"measurement": "glycan array binding signal (z-score)", "setting": "[21]", "value": 0.081}, {"measurement": "glycan array binding signal (z-score)", "setting": "[22]", "value": -0.348}, {"measurement": "glycan array binding signal (z-score)", "setting": "[23]", "value": -0.227}, {"measurement": "glycan array binding signal (z-score)", "setting": "[24]", "value": 0.084}]}]}
